Source: publication PMC4336329 (PLoS ONE, 2015)
Hit rate of the full screen: of about 310,000 compounds, about 14,000 (4.5%) showed an effect of 50% or more. Effects have a minus sign here. The list shows a part of the results.

biological target: human ether-à-go-go-related gene (hERG) potassium channel (human, UniProt Q12809); test: primary screen, population patch clamp on CHO cells stably expressing hERG
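Also: peak tail current of the secondary pulse compared with the same well before compound.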

human ether-à-go-go-related gene (hERG) potassium channel, sequence (Q12809 whole entry, looked up): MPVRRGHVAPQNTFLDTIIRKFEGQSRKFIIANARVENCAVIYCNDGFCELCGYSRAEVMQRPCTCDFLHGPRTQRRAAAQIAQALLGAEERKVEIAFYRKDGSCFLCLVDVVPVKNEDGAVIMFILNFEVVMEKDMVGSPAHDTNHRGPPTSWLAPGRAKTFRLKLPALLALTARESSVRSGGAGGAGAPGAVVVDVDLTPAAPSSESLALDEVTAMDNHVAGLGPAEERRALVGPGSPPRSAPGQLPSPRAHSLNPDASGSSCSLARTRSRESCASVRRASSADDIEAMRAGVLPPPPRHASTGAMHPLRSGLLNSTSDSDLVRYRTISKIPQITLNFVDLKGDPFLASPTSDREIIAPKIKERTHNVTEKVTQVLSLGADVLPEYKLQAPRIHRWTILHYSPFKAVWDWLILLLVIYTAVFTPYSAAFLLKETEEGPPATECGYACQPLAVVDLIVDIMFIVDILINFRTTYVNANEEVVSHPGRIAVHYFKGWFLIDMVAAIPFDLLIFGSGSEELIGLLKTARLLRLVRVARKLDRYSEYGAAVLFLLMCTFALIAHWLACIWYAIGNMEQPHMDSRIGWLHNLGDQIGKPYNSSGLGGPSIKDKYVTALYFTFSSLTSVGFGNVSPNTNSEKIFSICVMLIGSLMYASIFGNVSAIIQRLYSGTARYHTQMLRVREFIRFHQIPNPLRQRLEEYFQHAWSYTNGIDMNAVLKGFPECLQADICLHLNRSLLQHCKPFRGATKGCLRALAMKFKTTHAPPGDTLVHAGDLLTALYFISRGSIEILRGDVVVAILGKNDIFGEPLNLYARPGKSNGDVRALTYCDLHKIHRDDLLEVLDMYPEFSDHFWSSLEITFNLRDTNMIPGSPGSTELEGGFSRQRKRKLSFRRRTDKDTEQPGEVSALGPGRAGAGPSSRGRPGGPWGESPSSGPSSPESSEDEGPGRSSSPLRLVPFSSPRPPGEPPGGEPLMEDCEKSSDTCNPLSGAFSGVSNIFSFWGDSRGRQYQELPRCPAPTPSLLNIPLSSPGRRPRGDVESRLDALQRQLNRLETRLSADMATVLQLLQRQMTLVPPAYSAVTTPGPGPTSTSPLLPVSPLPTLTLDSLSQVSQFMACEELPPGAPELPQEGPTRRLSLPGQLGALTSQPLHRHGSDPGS

| SMILES | hERG current change (%, negative = inhibition) at 10uM [%] |
| --- | --- |
| Cc1[nH]c2ccccc2c1C(=O)C(=O)NCc1ccco1 | 23.2 |
| CCOCCOc1cccc(C(=O)NC(c2ccccc2)c2ccccc2)c1 | 17.7 |
| Cc1cc(-c2ccccc2)nc(-c2ccccc2)c1C | 5.41 |
| Cc1ccc2cc(C)c(Sc3nnnn3-c3ccccc3)nc2c1 | -25.6 |
| Cc1cccc(NCc2nc(SCC(N)=O)n[nH]2)c1 | -6.1 |
| CCC(=O)c1ccccc1OCCN1CCN(Cc2ccccc2)CC1.O=C(O)C(=O)O | -59.1 |
| Cc1ccc(-c2noc(CCC(=O)NCC3CCCO3)n2)cc1 (stereo not shown) | 2 |
| O=C(NC1CCN(C(=O)NCc2ccccc2)CC1)c1ccco1 | 11.5 |
| CCCCN1C(C(=O)Nc2cc(C)on2)=C(O)c2ccccc2S1(=O)=O | 19.2 |
| CCOC(=O)c1c(C)n(CC(O)CN2CCOCC2)c2cc(Br)c(OC)cc12.Cl (stereo not shown) | -24 |
| O=[N+]([O-])c1ccc(N2CCN(S(=O)(=O)c3ccc(Cl)cc3)CC2)cc1NCc1cccnc1 | 2.59 |
| O=C(NC1CCS(=O)(=O)C1)c1ccc(S(=O)(=O)N2CCCC2)cc1 (stereo not shown) | 9.83 |
| Cc1cccc(NC(=O)CSc2nc3ccc(N4C(=O)c5ccccc5C4=O)cc3s2)c1C | 16.7 |
| CC1(C)C2CCC1(CS(=O)(=O)N1CCOCC1)C(=O)C2 (stereo not shown) | -1.75 |
| COc1ccc(OC)c(NC(=O)N2CCCc3ccccc32)c1 | -3.9 |
| CC(Sc1nccn1C)C(=O)Nc1ccccc1 (stereo not shown) | 12.8 |
| CC(=O)Nc1ccc(NC(=O)C(C)OC(=O)CCc2nc3ccccc3s2)cc1 (stereo not shown) | 8.54 |
| Cl.Fc1ccc2c(c1)nnn2C1CCN(Cc2nnnn2C2CCCCC2)CC1 | -38.1 |
| O=C1[C@H]2[C@@H](/C=C/c3ccccc3)N3C(=O)CN(CC4CC4)C(=O)[C@@]3(Cc3ccccc3)[C@H]2C(=O)N1c1ccccc1 | -8.66 |
| COCCNC(=O)/C(C#N)=C/c1ccc(C)o1 | 4.2 |
| COC(=O)C1=C(C)NC(C)=C(C(=O)OC)C1c1ccc(N(C)C)cc1 | -19 |
| Cc1cccn(Cc2c(Cl)cccc2Cl)c1=O | -9.53 |

| SMILES | hERG current change (%, negative = inhibition) at 10uM [%] |
| --- | --- |
| COCCNC(=O)CSc1nnc(NC(=O)C2CC(=O)N(c3ccccc3OC)C2)s1 (stereo not shown) | 17.5 |
| COC(=O)C1=C(COc2ccccc2)NC(=O)NC1c1ccc(Cl)cc1 (stereo not shown) | 14.2 |
| COc1cc(S(=O)(=O)N2CCN=C2c2ccccc2)ccc1F | -4.75 |
| COc1ccc(-c2nc3c(n2O)CCCC3=O)cc1OC | 10 |
| CC(NC(=O)Cc1ccccc1[N+](=O)[O-])c1ccccc1 (stereo not shown) | 0.588 |
| Cc1ccc(C2CC2C(=O)NN)cc1 (stereo not shown) | -0.68 |
| COCCn1nnnc1C(CC(C)C)N1CCN(c2ccccc2)CC1 (stereo not shown) | 5.44 |
| COc1ccccc1C1/C(=C(\O)c2ccc3c(c2)OCCO3)C(=O)C(=O)N1CCCn1ccnc1 (stereo not shown) | 21.8 |
| CN(C(=O)COC(=O)CCc1c[nH]c2ccccc12)c1ccccc1 | 11.1 |
| COc1cccc(C(=O)N(Cc2ccco2)c2c(N)n(Cc3ccccc3)c(=O)[nH]c2=O)c1 | 10.1 |
| COCCC(=O)N1CCCC(C(=O)c2ccc(C(F)(F)F)cc2)C1 (stereo not shown) | -1.83 |
| Cc1cc(C)cc(NC(=O)c2nccnc2C(=O)O)c1 | 5.34 |
| Cc1ccc(S(=O)(=O)C2(C(=O)NC3CCCCC3C)CC2)cc1 (stereo not shown) | 7.09 |
| COC(=O)C1N[C@@H]([C@@H](NC(=O)COc2ccccc2)C(=O)NCc2ccc(OC)cc2)SC1(C)C (stereo partly shown) | -12.5 |
| O=S(=O)(c1cnc(Cl)c(Br)c1)N1CCCCCC1 | -8.5 |
| COc1ccc(S(=O)(=O)N2CCN(C3Cc4ccccc4C3)CC2)cc1 | 11.8 |
| Cc1cc(Nc2cccc(Cl)c2)nc(NCc2ccccc2)n1 | 8.73 |
| Cc1ccc(C2=NN(C(=O)CSc3nnnn3C)C(c3ccco3)C2)cc1 (stereo not shown) | 17.1 |
| Oc1ccc2nc(Cc3ccccc3)[nH]c2c1 | 13.2 |
| Cc1ccc(NS(=O)(=O)c2ccccc2F)cc1S(=O)(=O)N1CCCCC1 | -21.4 |
| Cc1ccc(C(=O)Nc2ccccc2C(=O)NCc2ccco2)cc1S(=O)(=O)N1CCCCC1 | -13.5 |
| O=c1cc(-c2ccccc2)[nH]c2[nH]n(-c3ccccc3)c(=O)c12 | -2.82 |

| SMILES | hERG current change (%, negative = inhibition) at 10uM [%] |
| --- | --- |
| Cc1cccc(C(=O)OCC(=O)c2ccc3c(c2)OCO3)c1O | 5.7 |
| CC(c1nc2ccccc2c(=O)[nH]1)N1CCOCC1 (stereo not shown) | 7.09 |
| CCC(=O)N1c2ccccc2[C@@H](N(C(C)=O)c2ccccc2)C[C@H]1C | 0.489 |
| O=C(COc1ccccc1)Nc1c(C(=O)N2CCC(N3CCCCC3)CC2)oc2ccccc12 | -69 |
| CCn1nc(C(=O)Nc2cc(Cl)ccc2-n2cncn2)c2ccccc2c1=O | -4.32 |
| O=C(Nc1ccc(S(=O)(=O)N2CCOCC2)cc1)c1cc(-c2ccccc2O)n[nH]1 | 11.7 |
| CC1(C)Cc2nc(N3CCOCC3)c(C#N)cc2CO1 | 7.25 |
| O=C1C(=O)N(CCN2CCOCC2)C(c2ccncc2)/C1=C(/O)c1ccc2c(c1)OCO2 (stereo not shown) | 8.87 |
| CCOc1ccc(Oc2ccccc2NS(=O)(=O)c2ccc(CCC(=O)O)cc2)cc1 | -1.05 |
| CCc1nc2oc3cc(OC)ccc3c(=O)c2c(=O)n1-c1ccccc1 | -2.43 |
| O=C(CCN1CCCCO1)N1CCCC(N2CCN(c3ccc(F)cc3)CC2)C1 (stereo not shown) | -11.2 |
| NC(N)=NC1=NC(=O)C(Cc2ccccc2)S1 (stereo not shown) | 5.06 |
| O=C(CSc1nc2c(sc3ccccc32)c(=O)n1Cc1ccco1)NCC1CCCO1 (stereo not shown) | -13.9 |
| O=C(Cn1ccn(-c2ccc(F)c(F)c2)c(=O)c1=O)NCCc1ccccc1 | 10 |
| O=C(Nc1cccc(O)c1)c1ccc(Br)cc1 | -14.2 |
| CN(CCC1CCCCO1)C(=O)CCc1nnc(CCCCc2ccccc2)o1 (stereo not shown) | -6.24 |
| Nc1ccc(-c2nc3ccccc3s2)cn1 | -4.49 |
| CCN(CC)c1ccc(/C=c2\sc3nnc(-c4ccccc4Cl)n3c2=O)cc1 | 2.37 |
| Clc1cccc(NCc2cn3cccnc3n2)c1 | 1.23 |
| CCOC(=O)c1cnc(SCC(=O)OCC(=O)N(CC)C2CCS(=O)(=O)C2)nc1N (stereo not shown) | -7.63 |
| COc1ccc(S(=O)(=O)NCCc2ccncc2)cc1 | 15.5 |
| CN(C(=O)COC(=O)c1ccc(F)c(S(=O)(=O)N2CCOCC2)c1)C1CCS(=O)(=O)C1 (stereo not shown) | 4.22 |

| SMILES | hERG current change (%, negative = inhibition) at 10uM [%] |
| --- | --- |
| O=C(CN1C(=O)COCC1=O)N1CCOCC1 | 3.2 |
| C#CCCc1cocc1/C=[N+](\[O-])c1ccc(C(=O)OCC)cc1 | 4.38 |
| CC(=O)n1cc(C2C(=O)CCCC2=O)c2ccccc21 | -1.91 |
| O=C(O)c1ccc(-n2ncc3c2/C(=C/c2cccc([N+](=O)[O-])c2)CC3)cc1 | 29.2 |
| Cc1nc(N=C(N)N)nc2c(C)cccc12 | 25.2 |
| COc1cc(CN2CCN(c3ncccn3)CC2)cc(OC)c1 | -7.24 |
| COc1ccc(C2=C(C=O)Cc3ccccc3O2)cc1 | -19.9 |
| O=C(CCc1c[nH]c2ccccc12)NN1C(=O)NC2(CCCCC2)C1=O | 1.53 |
| CC(=O)N1CCN(c2ccc(NC(=O)c3ccco3)cc2)CC1 | 16 |
| COc1cc(C(=O)NCC(=O)NNC(=O)C2COc3ccccc3O2)cc(OC)c1OC (stereo not shown) | 12 |
| O=C(Nc1cccc(-n2cccn2)c1)C1CCCN(Cc2cccc(F)c2F)C1 (stereo not shown) | -17.8 |
| NC1CCN(c2c(F)cc3c(=O)c(C(=O)O)cn(C4CC4)c3c2Cl)C1 (stereo not shown) | 13.4 |
| Cc1[nH]c2ccccc2c1N=Nc1cccc(C(=O)O)c1 | 28.2 |
| COc1cc(NC(=S)NNC(=O)CC(C)C)c(OC)cc1Cl | 10.8 |
| COC(=O)CC1=NN(c2ccc(OC)cc2)C(=O)/C1=C\c1ccc(Cl)cc1 | 7.33 |
| COc1ccc(C)cc1NC(=O)c1ccccc1N(C)S(=O)(=O)c1ccccc1 | -1.38 |
| CC1CCCCN1C(=O)CSc1nc(-c2ccccc2)cn1N (stereo not shown) | 0.609 |
| CCNS(=O)(=O)c1ccc(C(=O)OCc2cc(=O)oc3cc(OC)ccc23)cc1 | -11.9 |
| O=C(NCC(c1ccco1)N1CCc2ccccc21)C(=O)Nc1ccc(F)cc1F (stereo not shown) | -34.8 |
| C/C(=N\Nc1ccc(C(=O)O)cc1)c1ccc2c(c1)Nc1ccccc1S2.O=S(=O)(O)O | -14.8 |
| CCCCc1nc2ccccc2c(C(=O)O)c1C | 7.29 |
| Cc1cc(NS(=O)(=O)c2ccc(NC(=O)C(C)N3C(=O)c4ccccc4C3=O)cc2)nc(C)n1 (stereo not shown) | 0.543 |
